Hit rate of the full screen: of about 52,000 compounds, about 1,700 (3.3%) were called active. No stated cut-off is given here; in the data, active means survival mostly below about 52% (no sharp cut-off); inactive means mostly above about 56%. The list shows a part of the results.
test system: Wild type; experiment: S. aureus survival, RN4220 and DeltatarO strains – OD600, teichoic acid synthesis inhibitors, primary screen (AID 463173); details: S. aureus RN4220 wild type/DeltatarO growth, OD600, 18 h, active compounds read low, screened at 18.75 µg/mL (by protocol)

Row | SMILES | survival
1 | O=C(Nc1cc2c(s1)CCCC2)c1ccccc1 | inactive: 122%
2 | O=S(=O)(Nc1ccccc1C(F)(F)F)c1ccc(N2CCCCS2(=O)=O)cc1 | inactive: 136%
3 | COc1ccc(Cl)cc1NS(=O)(=O)c1ccc2[nH]c3c(c2c1)CCCC3 | inactive: 63%
4 | Cc1cccc(C)c1NC(=O)Cn1c(=O)n(Cc2ccccc2)c(=O)c2c(C)c(C(=O)N(C)C)sc21 | inactive: 110%
5 | CC(=O)N(Cc1cccnc1)c1nc2c(F)cc(F)cc2s1 | inactive: 71%
6 | Cc1ccc(Cl)cc1-n1c(=O)cc(N2CCN(c3ccc(F)cc3)CC2)[nH]c1=O | inactive: 79%
7 | Cc1cc(C)c2oc(C(=O)Nc3ccc(S(=O)(=O)N4CCCCC4)cc3)cc(=O)c2c1 | inactive: 82%
8 | Cc1ccc(-c2nc3sc(CCNS(=O)(=O)c4cc(F)ccc4F)c(C)n3n2)cc1 | active: -4%
9 | Cn1c(=O)c2c(-c3ccc(Cl)cc3)n(Cc3ccccc3)cc2n(C)c1=O | inactive: 81%
10 | O=C(CSc1nccn1Cc1ccco1)Nc1ccc(F)cc1 | inactive: 59%
11 | COc1ccc(CNC(=O)CSc2nc3ccccc3nc2Cc2ccccc2)cc1 | inactive: 72%
12 | COc1cccc(NC(=O)C2CCC(CNS(=O)(=O)c3ccc4c(c3)CC(C)N4C(C)=O)CC2)c1 (stereo unspecified) | inactive: 95%
13 | CCOC(=O)c1cc(S(=O)(=O)Nc2ccc(C)cc2Cl)[nH]n1 | inactive: 53%
14 | COc1cccc(/C=C/c2nc(C#N)c(NCCN(C)C)o2)c1 | inactive: 102%
15 | COc1ccc(S(=O)(=O)NCCc2cc3ccc(C)c(C)c3[nH]c2=O)cc1 | inactive: 120%
16 | COc1ccc(Cn2c(CCC(=O)NCc3cccc(Cl)c3)nc3cccnc32)cc1 | inactive: 130%
17 | CCOC(=O)c1[nH]c(C)c(CCC(=O)NCc2ccc(N(C)C)cc2)c1C | inactive: 93%
18 | CCCc1cc(=O)n2[nH]c(NCc3ccc(CC)cc3)nc2n1 | inactive: 90%
19 | O=C1c2[nH]nc(-c3ccccc3)c2C(c2ccccc2)N1c1cccc(C(F)(F)F)c1 (stereo unspecified) | inactive: 41%

Row | SMILES | survival
20 | O=C1SC(Nc2ccc(Cl)cc2)C(=O)N1Cc1ccccc1 (stereo unspecified) | inactive: 90%
21 | Cc1ccc2oc(C(=O)Nc3ccc(S(=O)(=O)Nc4onc(C)c4C)cc3)cc(=O)c2c1 | inactive: 85%
22 | O=C1CS(=O)(=O)C2(C(=O)N(Cc3ccc(F)cc3)c3ccccc32)N1c1cccc(C(F)(F)F)c1 (stereo unspecified) | inactive: 135%
23 | CC1CCN(S(=O)(=O)c2ccc3c(c2)N(CC(=O)NCCc2ccc(Cl)cc2)C(=O)CO3)CC1 | inactive: 97%
24 | Cc1ccc(NC(=O)CCCn2c3ccccc3c(=O)c3cc(C)ccc32)c(Br)c1 | inactive: 64%
25 | CCOC(=O)c1c(C)[nH]c(C)c1S(=O)(=O)N1CCC(C(=O)N2CCN(c3cc(C)ccc3C)CC2)CC1 | inactive: 84%
26 | Cc1c(Cl)cccc1Nc1nc(N)nc(CSc2nc3ccccc3s2)n1 | inactive: 63%
27 | COc1cccc(C(=O)NCC(=O)OCc2cc(=O)n3nc(C)sc3n2)c1 | inactive: 136%
28 | O=C(CSc1ncc(S(=O)(=O)c2ccc(Cl)cc2)c(=O)[nH]1)Nc1ccc2c(c1)OCCO2 | inactive: 85%
29 | CCCC(=O)Nc1nnc(SCc2cc(=O)c3ccc(C)cc3[nH]2)s1 | inactive: 127%
30 | COc1cc2c(cc1OC)CN(C(=O)CSc1nc(C)cc(C)c1C#N)CC2 | inactive: 99%
31 | CCCCNC(=O)C1=CC(c2ccc3c(c2)OCO3)=NS(=O)(=O)N1C | inactive: 82%
32 | CCOc1ccc(-c2c(C#N)c(N)nc3sc(C(=O)OC)c(N)c23)cc1 | inactive: 110%
33 | CCOc1ccc(N(C)C(=O)C2CCN(S(=O)(=O)c3ccc4c(c3)CCCN4C(C)=O)CC2)cc1 | inactive: 72%
34 | CCC(Sc1nc2ccncc2[nH]1)C(=O)Nc1ccc(F)cc1 (stereo unspecified) | inactive: 123%
35 | COc1cccc(-n2c(=O)c3sc4ccccc4c3n(CC(=O)Nc3ccccc3OC)c2=O)c1 | inactive: 87%
36 | Cc1ccc(-n2nc(CO)c(C(=O)NCCc3ccccc3)n2)cc1 | inactive: 90%
37 | COc1cccc(C(C(=O)NC2CCCCC2)N(C(=O)c2ccccn2)c2cccnc2)c1 (stereo unspecified) | inactive: 94%
38 | O=S(=O)(c1ccccc1)c1nnn2c1nc(Nc1ccccc1)c1cc(Cl)ccc12 | inactive: 119%

Row | SMILES | survival
39 | Cc1ccc(Cl)cc1N1CCN(C(=O)Cn2ncc3c([nH]c4ccccc43)c2=O)CC1 | inactive: 75%
40 | Cc1cc(C)cc(NC(=O)C(NS(=O)(=O)c2cccc3nsnc23)c2ccccc2)c1 (stereo unspecified) | inactive: 80%
41 | O=C(CSc1nnc(-c2ccc(Cl)cc2)o1)N1CCc2ccccc21 | inactive: 85%
42 | Cc1ccc(Cn2cnc3c(oc4ccccc43)c2=O)cc1 | inactive: 89%
43 | CCCCOc1nnc(-c2ccc(OCC)cc2)c2ccccc12 | active: -1%
44 | COc1ccc(CCNC(=O)CCc2cn(Cc3ccc(C)cc3)c3ccccc23)cc1OC | inactive: 70%
45 | CCOC(=O)N1CCN(C(=O)c2ccc3c(c2)N(Cc2cc(C)ccc2C)C(=O)c2ccccc2S3=O)CC1 (stereo unspecified) | inactive: 89%
46 | Cc1oc2ccc(O)c(CN(C)Cc3ccccc3)c2c1C(=O)Nc1cccc(Cl)c1C | inactive: 39%
47 | CCCCn1c2ccccc2c2nnc(SCC(=O)Nc3ccc(NC(C)=O)cc3)nc21 | inactive: 89%
48 | Cc1ccccc1NC(=O)c1c2c(nc3ccccc13)C(=O)N(C1CCCCC1)C2 | inactive: 79%
49 | CCCCn1c(=N)n(CC(O)COc2ccccc2)c2ccccc21 (stereo unspecified) | inactive: 121%
50 | O=C(Nc1onc2c1CCCC2)c1ccc(Cl)cc1 | inactive: 75%
51 | CCc1nc2nc(C)cc(Nc3ccc(Br)cc3F)n2n1 | inactive: 133%
52 | COc1ccccc1-c1cc(C(F)(F)F)nc(S(=O)(=O)CCCC(=O)Nc2cc(C)ccc2O)n1 | inactive: 51%
53 | Cn1ccnc1SCC(=O)N1c2ccccc2-c2c(ssc2=S)C1(C)C | inactive: 114%
54 | Cc1ccc2c(c1)c1c3n2CCN(C(=O)CN2CCN(C(=O)c4ccco4)CC2)C3CCC1 (stereo unspecified) | inactive: 126%
55 | CCc1c(C)sc(NC(=O)c2cc(-c3ccc(OC)cc3)on2)c1C#N | inactive: 85%
56 | CC(=O)Nc1ccc(S(=O)(=O)Nc2ccc(-c3cn4c(C)csc4n3)cc2)cc1 | inactive: 69%
